Test results taken from publication PMC4336329 (PLoS ONE, 2015).
Screen size: about 310,000 compounds; about 2,200 (0.71%) showed an effect of 50% or more. Effects have a minus sign here. The list shows a part of the results.

target: human ether-à-go-go-related gene (hERG) potassium channel (human, UniProt Q12809); experiment: primary screen, population patch clamp on CHO cells stably expressing hERG
Sequence (Q12809 whole entry, looked up): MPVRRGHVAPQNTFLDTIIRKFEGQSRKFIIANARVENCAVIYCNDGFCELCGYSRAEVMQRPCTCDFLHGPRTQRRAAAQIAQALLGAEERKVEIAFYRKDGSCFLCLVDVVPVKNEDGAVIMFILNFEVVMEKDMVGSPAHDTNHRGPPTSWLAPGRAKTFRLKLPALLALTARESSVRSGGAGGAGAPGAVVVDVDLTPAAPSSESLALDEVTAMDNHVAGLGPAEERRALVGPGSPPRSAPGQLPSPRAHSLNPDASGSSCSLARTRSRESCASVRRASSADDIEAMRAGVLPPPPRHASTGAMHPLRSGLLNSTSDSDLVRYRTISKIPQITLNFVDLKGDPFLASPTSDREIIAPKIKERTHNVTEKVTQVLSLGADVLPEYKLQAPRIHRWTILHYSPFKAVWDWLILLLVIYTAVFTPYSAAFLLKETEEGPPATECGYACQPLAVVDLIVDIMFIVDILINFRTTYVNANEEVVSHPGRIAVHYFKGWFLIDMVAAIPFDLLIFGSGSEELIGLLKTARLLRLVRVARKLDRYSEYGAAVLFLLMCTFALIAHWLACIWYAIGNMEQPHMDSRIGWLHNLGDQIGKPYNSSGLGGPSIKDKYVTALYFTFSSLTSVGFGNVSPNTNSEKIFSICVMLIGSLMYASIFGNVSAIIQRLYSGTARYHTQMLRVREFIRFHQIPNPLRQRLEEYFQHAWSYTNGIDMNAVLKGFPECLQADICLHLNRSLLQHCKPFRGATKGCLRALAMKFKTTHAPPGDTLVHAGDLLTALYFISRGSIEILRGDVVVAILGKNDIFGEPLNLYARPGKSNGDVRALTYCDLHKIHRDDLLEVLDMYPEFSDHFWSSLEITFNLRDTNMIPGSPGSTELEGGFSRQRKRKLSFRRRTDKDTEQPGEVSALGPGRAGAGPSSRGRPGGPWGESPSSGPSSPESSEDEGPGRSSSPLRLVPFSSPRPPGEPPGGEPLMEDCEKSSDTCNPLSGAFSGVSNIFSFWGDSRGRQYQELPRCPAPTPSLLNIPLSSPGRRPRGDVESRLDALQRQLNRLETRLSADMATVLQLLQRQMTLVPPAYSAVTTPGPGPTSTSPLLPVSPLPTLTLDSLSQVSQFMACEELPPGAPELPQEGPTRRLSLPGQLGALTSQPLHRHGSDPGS

SMILES | hERG current change (%, negative = inhibition) at 1uM [%]
C=CCNc1sc(C(=O)C(C)(C)C)c(N)c1C#N | 11.2
COc1cccc(/C=C2\Oc3cc(OCC(=O)N4Cc5ccccc5C[C@H]4C(=O)O)ccc3C2=O)c1 | 12.6
Cc1nn(CC(=O)NN)c(C)c1Br | 11.2
O=C(O)c1cccc2nc3ccccc3nc12 | -7.04
COc1cc(C=Nc2c(C)cc(C)cc2C)ccc1OC(C)=O | 6.94
Cc1ccc(C(=O)N/N=C\c2ccc3c(c2)OCO3)cn1 | 0.204
Cc1cccn2c(=O)c3cc(C(=O)NCC(C)C)sc3nc12 | 1.09
CCOc1ccc(C(C)=O)cc1Cc1c(O)nc(N)[nH]c1=O | 11.6
Cc1ccc(C(=O)n2cc(CCN3CCS(=O)(=O)CC3)c3ccccc32)cc1 | 10.3
Cc1ccc(OCCCCNC(C)(C)C)c([N+](=O)[O-])c1.O=C(O)C(=O)O | 4.98
O=C1C2C3c4ccccc4C(c4ccccc43)[C@@H]2C(=O)N1c1cccnc1 (some centres unmarked) | 11.8
O=c1c2ccccc2nc(/C=C/c2cccc(Br)c2)n1CCCO | 10.2
COc1ccccc1-c1noc(CCCC(=O)N2CCOCC2)n1 | 5.6
CCCNS(=O)(=O)c1ccc(OCC(=O)N2CCN(C)CC2)cc1 | 0.693
Cn1cnnc1SCC(=O)Nc1cc(S(=O)(=O)N2CCCCCC2)ccc1Cl | 7.67
COc1ccc(NC(C)C(=O)N2CCN(Cc3ccccc3)CC2)cc1 (centres unmarked) | 20.3
Cc1cccn2c(=O)c3cc(C(=O)NC4CCCC4)sc3nc12 | 2.15
Cc1ccc(C(=O)NC(C)C2CCCO2)o1 (centres unmarked) | 8.01
COc1ccc(S(=O)(=O)N(C)CC(=O)Nc2ccc(C(N)=O)cc2)cc1OC | 10.9
Cc1ccc(-n2c(=O)c3ccc(C(=O)NCc4ccco4)cc3n(Cc3ccccc3C#N)c2=O)cc1 | 21.3
COc1ccc(OC)c(/C=C2\SC(=S)N(C(C(=O)O)c3ccccc3)C2=O)c1 (centres unmarked) | 10.5
COC(=O)c1cc(Br)c(=O)n(-c2ccccc2OC)c1 | 11.9
O=C(NCCCCc1ccccc1)C12CN(Cc3ccccc3)CC1C(c1cccc([N+](=O)[O-])c1)=NO2 (centres unmarked) | 10.9

SMILES | hERG current change (%, negative = inhibition) at 1uM [%]
C=CCn1c2ccccc2c2nnc(SCC(=O)OCN3C(=O)c4ccccc4C3=O)nc21 | -3.37
O=C(c1cc(Cl)c(=O)n(Cc2ccc(Cl)cc2)c1)N1CCOCC1 | -6.51
CCCNC(=O)c1ccc(N2CCC3(CC2)CC(c2ccccc2)=NO3)c(NC(=O)c2cccc(OC)c2)c1 | -2.22
CCOC(=O)c1sc(=NC(=O)c2ccc(C)cc2)n(C)c1C | 8.94
Cc1cc(Cl)c2oc(C(=O)N(C)Cc3ccon3)c(C)c2c1 | 13.6
COCCn1c(SCC(=O)Nc2nc(C)cs2)nnc1C(C)C | 9.94
COc1ccc(C(=O)CCc2ccccc2)c(O)c1 | 18.6
COC(=O)c1ccc2c(c1)NC(=O)c1ccccc1S2 | 15.9
O=C(O)c1cc(NC(=O)c2ccco2)cc(NC(=O)c2ccco2)c1 | 10.8
COc1n[nH]c(C(=O)Nc2cc(Cl)ccc2Cl)c1[N+](=O)[O-] | 11.6
C(=NC12CN3CN(CN(C3)C1)C2)c1cccnc1 | 12.7
Cc1cccc(N2CC34C=CC(O3)C(C(=O)O)C4C2=O)c1 (centres unmarked) | 6.38
O=C(Nc1cccnc1Cl)c1ccc(S(=O)(=O)N2CCCCCC2)cc1 | 2.57
COc1ccc(N2CC(C(=O)Nc3cc(C)on3)CC2=O)cc1 (centres unmarked) | 12.3
O=C(CN1C(=O)c2cccnc2Oc2ccc(Cl)cc21)NCCC1=CCCCC1 | 4.44
COc1ccc(NC(=O)c2ccc(C(=O)Nc3ccc(OC)cc3OC)cc2)c(OC)c1 | 5.18
CC(C)CCNc1nc(N)c([N+](=O)[O-])c(NCC2CCCO2)n1 (centres unmarked) | 0.142
Cc1ccc(S(=O)(=O)N2CCOC2CNC(=O)C(=O)NCCc2ccccc2)cc1 (centres unmarked) | 4.95
COc1ccccc1OCCC(=O)OCC(=O)NCc1ccc(Cl)cc1 | -3.18
COC(=O)Nc1nnc(/C=C/c2ccccc2)s1 | 10.5
O=C(NCc1cccc2ccccc12)c1cccs1 | 16.4
O=C(CN1CCN(Cc2ccc(F)cc2)CC1)Nc1ccccc1F | -12
CCC(=O)NCc1c(Cl)cccc1-n1cccc1 | 6.64

SMILES | hERG current change (%, negative = inhibition) at 1uM [%]
S=c1[nH]nc(-c2ccco2)n1/N=C/c1ccc(Cl)c(Cl)c1 | 8.2
COc1ccc2oc(C(=O)OCC(=O)N(CC(C)C)c3c(N)n(Cc4ccccc4)c(=O)[nH]c3=O)c(C)c2c1 | 7.49
COc1ccc2oc(-c3ccccc3)c(C(N)=O)c2c1 | 13.2
COc1cc(OC)c(C(=O)NC2CCCCCC2)cc1OC | 4.33
CCOC(=O)c1c(C)[nH]c(C(=O)COC(=O)c2ccc(O)cc2)c1C | 14.3
COCCN(C(=O)c1cccc(N2C(=O)CCC2=O)c1)c1nc(-c2ccc([N+](=O)[O-])cc2)cs1 | -19.2
Cc1cc(OCC(=O)Nc2ccncc2)ccc1Br | 15
Cc1cc(C)cc(NC(=O)N2CCCN(Cc3c(F)cccc3Cl)CC2)c1 | 5.85
COc1cccc(/C=C/C(=O)OCC(=O)NCCc2ccccc2)c1 | 4.44
Cc1cnc(NC(=O)CCCNC(=O)c2ccc(Cl)cc2)s1 | 15.1
COC(=O)c1ccc2[nH]c(C)cc(=O)c2c1 | 9.04
Cc1ccc(NC2(C#N)C(=O)Nc3ccccc32)cc1C (centres unmarked) | 7.55
O=C(COC(=O)c1ccccc1C(=O)c1ccc(Cl)cc1)NCC1CCCO1 (centres unmarked) | 14.6
CCN(CC)C(=O)CSc1nc2ccccc2c(=O)n1OC | -3.33
CCOC(=O)[C@H]1[C@H]2COc3cc(OC)ccc3[C@@H]2N2C(=O)c3cc(C)ccc3NC(=O)[C@@]12C | 13.6
Cl.Nc1ncnc2c1CCC2 | 9.16
O=C(Cn1cccc1C(=O)c1ccccc1)NCc1ccc2c(c1)OCO2 | 4.28
CCOC(=O)Cc1nnc(NC(=O)CSc2nc3ccccc3[nH]2)s1 | 13.8
Cc1ccc(S(=O)(=O)N2CCCC2C(=O)OCc2ccco2)cc1 (centres unmarked) | -1.18
COc1cc(OC)cc(C(=O)Nc2nc(-c3ccccc3)c(-c3ccccc3)o2)c1 | 1.07
O=C(CC(c1ccccc1)c1cc(Br)ccc1O)NCc1ccco1 (centres unmarked) | -5.62
CN1C(CC(=O)Nc2ccc(Br)cc2)c2ccccc2CC1(C)C (centres unmarked) | 21.3
CC(=O)c1sc(NC(=O)c2cnc(Cl)c(Cl)c2)nc1C | 13.7

SMILES | hERG current change (%, negative = inhibition) at 1uM [%]
Cc1ccc(C(OCCN(C)C)c2cccc(C(F)(F)F)c2)cc1.O=C(O)/C=C\C(=O)O (centres unmarked) | -6.41
Cc1ccccc1OCC(=O)OC(C)C(=O)NC1CCCC1 (centres unmarked) | 12.3
CCOc1ccc2c(c1)C(c1ccc(C)cc1)=NNC(c1ccc(C)cc1)=N2 | 4.76
O=C(Nc1ccccc1C(F)(F)F)N1CCCC1c1cccnc1 (centres unmarked) | 13.1
O=C(Nc1nccs1)c1cc(-c2ccco2)nc2ccccc12 | 8.17
C/C(=N/NC(=O)c1cccc(N2CCCC2=O)c1)c1ccc(Br)cc1 | 4.79
CCCCn1nc(C(=O)NCc2ccccc2CN2CCCC2)c2ccccc2c1=O | -16.9
Cc1ccc(C(=O)N/C(=C/c2ccccc2)C(=O)NCc2ccncc2)cc1 | -37.7
COc1cccc(/C=N/N2CCOCC2)c1O | 4.89
CCOC(=O)c1c(CN2CCOCC2)n(-c2ccccc2)c2ccc(O)cc12 | -2.45
CC(C)[C@H](NC(=O)Nc1ccccc1F)C(=O)O | 14.7
COc1cc(/C=N/Nc2ccc(S(N)(=O)=O)cc2[N+](=O)[O-])cc(OC)c1O | 8.03
C=CCSc1nc2ccccc2c(=O)n1Cc1ccccc1 | -0.438
CSc1nc2ccc(NC(=O)CSc3nnc(N)s3)cc2s1 | 4.94
CN(C)CCCN(C(=O)COc1ccccc1)c1nc2ccc(F)cc2s1.Cl | -20.6
Cc1cccc(-n2c(CNC(=O)Cc3ccccc3)n[nH]c2=S)c1 | 9.93
COc1ccc(OC)c(NC2c3ncccc3C(=O)N2Cc2ccco2)c1 (centres unmarked) | 1.72
COc1cccc(CN(C)CC(=O)NCc2ccccc2Cl)c1 | 14.6
CCOC(=O)c1nn(-c2ccc(F)cc2)c(=O)cc1OCC(=O)Nc1cccc(C)c1 | 10.1
O=C(CSc1nc(-c2ccccc2)c(-c2ccccc2)o1)NC1CCS(=O)(=O)C1 (centres unmarked) | -6.47
